# The BET-seq Pho4 binding data (Le et al. 2018)
# The list shows a part of the results. The energies were worked out here from pooled read counts, against the library average; single values are noisy.
# Target: T1, Pho4 (S. cerevisiae) (UniProt P07270)
# T1 sequence: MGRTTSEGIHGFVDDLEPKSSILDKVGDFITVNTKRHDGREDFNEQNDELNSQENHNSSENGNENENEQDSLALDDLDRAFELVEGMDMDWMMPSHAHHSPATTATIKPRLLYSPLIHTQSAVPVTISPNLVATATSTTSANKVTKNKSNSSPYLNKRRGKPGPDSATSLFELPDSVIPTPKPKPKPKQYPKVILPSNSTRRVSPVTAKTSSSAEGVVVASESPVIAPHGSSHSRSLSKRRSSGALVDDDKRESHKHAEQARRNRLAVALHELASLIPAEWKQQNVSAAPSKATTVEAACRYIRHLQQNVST
# Experiment: relative binding free energy (BET-seq); higher = weaker binding
# Settings: reference: library average
row,Sequence,relative binding free energy [kcal/mol]
1,GTGATCACGTGGAAGG,0.18
2,TTATTCACGTGCGATT,0.31
3,GCGTTCACGTGTGATG,0.54
4,CTGTGCACGTGAGTAT,0.14
5,TGTATCACGTGTGCCT,0.08
6,TTTCGCACGTGTCTGT,0.02
7,ACGTACACGTGTGGGC,0.16
8,AGGGTCACGTGACTGG,0.36
9,TCAGACACGTGAGTGG,0.21
10,ATTATCACGTGGGTTA,0.08
11,AATATCACGTGTGGTG,0.16
12,ATTATCACGTGGATCT,0.3
13,TTGGGCACGTGTTTGG,-0.01
14,TTTGGCACGTGCTATA,-0.28
15,TTTTTCACGTGGAAAG,0.36
16,GTAGTCACGTGTTGCA,0.21
17,TGGAACACGTGGATTA,0.1
18,GAGGGCACGTGCAATG,0.02
19,AAGTGCACGTGTTTAG,0.01
20,AATAGCACGTGTAAGT,0.01
21,GTCGGCACGTGCAAGG,0.13
22,GTGAGCACGTGCCGGT,-0.07
23,AGGTTCACGTGCCGGG,0.26
24,GGTATCACGTGTTTAG,0.27
25,TTTTTCACGTGTTGAC,0.35
26,GTGAGCACGTGTCAGT,-0.03

row,Sequence,relative binding free energy [kcal/mol]
1,CTCGGCACGTGGGGGG,-0.28
2,GTATACACGTGAGCTT,0.35
3,TATGTCACGTGGATAG,0.06
4,TTGAACACGTGTGCGT,0.01
5,TGCGCCACGTGGGAGG,-0.25
6,GTTAGCACGTGGATGT,-0.06
7,GTGTGCACGTGATGCA,0.03
8,TAGTACACGTGCGGGG,0.04
9,GGGCACACGTGTTGCG,0.13
10,AATATCACGTGGGGTG,0
11,GGCGTCACGTGTAGTT,0.05
12,ATATTCACGTGAGTTT,0.32
13,AACGTCACGTGAGTTT,0.28
14,TATTCCACGTGGGTGT,-0.1
15,TTCGGCACGTGTAGCG,0.05
16,GATGTCACGTGAATGT,0.35
17,TTGTTCACGTGATTCC,0.35
18,GGGAACACGTGTTGCT,0.09
19,GGACCCACGTGGGGTG,-0.31
20,CTCTTCACGTGTGTGT,0.1
21,TTGAGCACGTGCTGAT,-0.13
22,TGTGTCACGTGTGTTT,0.19
23,GGGGTCACGTGGAAAT,0.21
24,TTATTCACGTGTTAAA,0.36
25,AAGCGCACGTGAGTGG,0.14
26,ATGGACACGTGTTAGA,0.1

row,Sequence,relative binding free energy [kcal/mol]
1,GTAGGCACGTGACTGG,0.04
2,GTGTCCACGTGGTGCT,-0.07
3,AAGGGCACGTGTAGGT,-0.15
4,GTGTGCACGTGTGAGT,0.05
5,GGTTACACGTGATCTG,0.17
6,TCGTTCACGTGTTAAT,0.21
7,AGTCTCACGTGTGTTG,0.2
8,GCTTGCACGTGTACGT,0.08
9,TACTGCACGTGTGTGA,0.06
10,TGGGCCACGTGGTAGC,0.04
11,TATTCCACGTGGGTAG,-0.07
12,TGTATCACGTGTATTA,0.15
13,TTTTCCACGTGCGTAT,0.03
14,AGTTGCACGTGTTGTA,-0.11
15,GTCGACACGTGTTGTT,0.17
16,TACGTCACGTGCGGTT,0
17,ATGATCACGTGCTATG,0.03
18,ATGCGCACGTGGGAGT,-0.27
19,GAGGACACGTGGCTGT,-0.03
20,AATCGCACGTGGCGTG,0.01
21,CCGGACACGTGGGTTG,-0.06
22,TGCTACACGTGGGTGA,-0.06
23,TTGCGCACGTGAGTGA,0.01
24,CGTGGCACGTGAAATT,0.24
25,TGTTTCACGTGGTTAA,0.31
26,TATAGCACGTGTCATG,-0.09

row,Sequence,relative binding free energy [kcal/mol]
1,GAGGGCACGTGTTAGA,-0.11
2,TGGGTCACGTGTGTAA,0.21
3,ATTATCACGTGTTATT,-0.01
4,TAGGTCACGTGTATGA,0.11
5,GGGAGCACGTGTCTGT,-0.04
6,CGGTTCACGTGTAATG,0.21
7,TGCTACACGTGAGGGA,0.27
8,GGAGGCACGTGGGGGG,-0.15
9,GCTTGCACGTGGATGT,0.01
10,GTTTTCACGTGGAACG,0.58
11,GTAGGCACGTGCTAGT,-0.23
12,ATATGCACGTGTCTTT,-0.03
13,CGAGACACGTGAGGGG,0.19
14,GTGCGCACGTGAGTAG,0.11
15,CTGGACACGTGAGTGG,0.3
16,TGGAACACGTGAGGTC,0.25
17,ATCAACACGTGTTGGT,-0.04
18,CGGGTCACGTGAGGTC,0.23
19,TGATTCACGTGAGTTC,0.47
20,ACTAGCACGTGAAGGG,0.25
21,TGCTTCACGTGGTGGC,0.21
22,GTGGGCACGTGTTTCG,-0.05
23,TTATACACGTGGAGTG,0.03
24,TGGGTCACGTGTAGAC,0.22
25,AGTAACACGTGGATGG,0
26,TAGGACACGTGGTTTC,0.01

row,Sequence,relative binding free energy [kcal/mol]
1,TGTGTCACGTGAAGGA,0.32
2,GTGTGCACGTGAATGT,0.3
3,GAGGACACGTGGTCGT,0.12
4,GACGGCACGTGGTGTC,-0.01
5,GGTGCCACGTGGGAAA,-0.06
6,AGCGTCACGTGGGATA,-0.14
7,TTGTTCACGTGTAACA,0.28
8,CGTGGCACGTGGCTTA,-0.17
9,GTAGACACGTGAGTTT,0.35
10,TATGTCACGTGTGGAG,0.13
11,AGGGACACGTGAGTGC,0.24
12,GGAGTCACGTGGACGG,0.14
13,GGCGGCACGTGCTGGT,-0.12
14,TATTACACGTGTGCTG,-0.1
15,CAGAGCACGTGTTTGT,-0.15
16,ATGGGCACGTGGGTCA,-0.16
17,TTTTGCACGTGACAGT,0.05
18,TATTACACGTGAGGTG,0.29
19,GGTGGCACGTGTTACA,-0.12
20,ATTAGCACGTGCGATG,-0.03
21,GGCTTCACGTGGGTTT,0.32
22,GTGTACACGTGAGTGA,0.28
23,AGGTACACGTGCGCTT,0.13
24,GTTTACACGTGGTGGG,0.15
25,ATGTTCACGTGTAGTT,0.34
26,TTTTCCACGTGTATAG,0.23

row,Sequence,relative binding free energy [kcal/mol]
1,ATTGTCACGTGTCGCG,0.05
2,CAGTTCACGTGGAGGT,0.15
3,AATTGCACGTGGGGCG,-0.02
4,TATGTCACGTGGTCAG,-0.03
5,AATTGCACGTGAAGTA,0.28
6,GGCTACACGTGTTGCG,0.25
7,GTTTACACGTGTGGCG,0.22
8,CTTAGCACGTGTGGTG,0.01
9,TGCAGCACGTGGGCCG,-0.13
10,CTAGGCACGTGGCGTA,-0.22
11,TCTGGCACGTGAAGGC,0.29
12,GGGGGCACGTGTGGTC,0.09
13,TCTGGCACGTGTGAAG,-0.01
14,GGTGACACGTGCTTGG,0.01
15,GTCGGCACGTGTTAGT,0.13
16,AGTGGCACGTGAGGTC,0.16
17,GACGGCACGTGATTTT,0.24
18,GATGGCACGTGATTTG,0.03
19,CTTTGCACGTGGTGCT,-0.1
20,TTAGACACGTGGTGCA,-0.07
21,TAATACACGTGGGGTG,-0.16
22,AGCATCACGTGGTGGG,0.06
23,TGCGGCACGTGTGTGC,-0.06
24,GGGATCACGTGTGATT,0.38
25,GGGTGCACGTGAGTTA,0.24
26,GGTGTCACGTGTTCTC,0.13

row,Sequence,relative binding free energy [kcal/mol]
1,TTATACACGTGTTAAA,-0.11
2,GGATGCACGTGGTACG,-0.13
3,TTTGGCACGTGATTTC,0.11
4,AGTTGCACGTGCAGGA,-0.05
5,CTGGTCACGTGTGGTC,0.25
6,AATGGCACGTGAAGGG,0.1
7,TCTTTCACGTGGTATT,0.23
8,TAGTGCACGTGTTCTG,-0.07
9,ACGGGCACGTGGAAGT,-0.11
10,TAGTTCACGTGTGACT,0.3
11,TAGGCCACGTGGCGTG,-0.11
12,TTTATCACGTGGGCCG,0.13
13,AAAATCACGTGGTTAG,0.04
14,CGTGTCACGTGGACGT,0.03
15,TGTTACACGTGGGGTG,-0.11
16,ATTGTCACGTGTGTCT,0.14
17,TTAGTCACGTGTAACA,0.18
18,GTAGTCACGTGATGAA,0.24
19,ATTTGCACGTGTTCGG,-0.03
20,TTGTGCACGTGTATAG,-0.09
21,AGGTGCACGTGTCGTG,0.04
22,GTTTACACGTGGGGGG,0.09
23,GTATGCACGTGGATGA,-0.07
24,ATTTTCACGTGTTACA,0.21
25,CGGGGCACGTGCTGTA,-0.23
26,TGGGCCACGTGTGCTT,0.07

row,Sequence,relative binding free energy [kcal/mol]
1,AATTTCACGTGTAAAG,0.22
2,ATTATCACGTGAGTTT,0.35
3,GTGGGCACGTGCGGTA,-0.14
4,AGGCACACGTGTGGCG,0.14
5,GCGGTCACGTGTTGGT,0.15
6,TTTCGCACGTGAGGAG,0.07
7,GAAGACACGTGGAGGT,-0.06
8,TGAGTCACGTGTGTAT,0.06
9,TTCCTCACGTGTGGGA,0.27
10,TATTACACGTGAGGGC,0.44
11,AGATGCACGTGTCGGG,-0.07
12,GTTTTCACGTGATTAA,0.26
13,AGCGGCACGTGTGTAG,-0.09
14,TAAGGCACGTGCGTTT,-0.04
15,TTTTGCACGTGGCGGC,-0.05
16,TTGGACACGTGCAGTT,0.07
17,CGGGGCACGTGGCCTG,-0.18
18,TTTATCACGTGATTTT,0.37
19,TAGGTCACGTGATCTT,0.22
20,AGCGGCACGTGAGTCT,0.31
21,TTGTTCACGTGCGGCT,0.32
22,TGTGACACGTGAAAGG,0.14
23,TGTGGCACGTGTGTAC,-0.16
24,TGTATCACGTGAGGAT,0.44
25,TCATGCACGTGGTTAG,-0.17
26,TTTTCCACGTGAAGTG,0.16

row,Sequence,relative binding free energy [kcal/mol]
1,GTGCTCACGTGCGGAG,0.18
2,TGTTTCACGTGCTGGT,0.21
3,TAGTTCACGTGTATTC,0.25
4,ACAGTCACGTGTCGGT,0.16
5,TATGACACGTGGGAGG,-0.22
6,TCGGGCACGTGTAGTC,0.02
7,TTGATCACGTGAGCTG,0.23
8,ATTAGCACGTGGTCAA,-0.07
9,GATTACACGTGGTCGT,0.09
10,AGCGTCACGTGAGTGT,0.1
11,TAGATCACGTGTTCGG,0.08
12,TGATTCACGTGTCTAG,0.31
13,TATGGCACGTGAGGTA,0.04
14,TTGAGCACGTGGAGCG,-0.05
15,TAAGTCACGTGATTTG,0.38
16,TAGTACACGTGTGTTC,0.12
17,TACGGCACGTGGTGTA,-0.25
18,TGGAGCACGTGAGTAT,0.23
19,TGAGGCACGTGATTGA,0.04
20,TTCTGCACGTGTTCGT,-0.1
21,CGTAGCACGTGTTTTT,-0.1
22,TAGCGCACGTGCTGTG,-0.08
